The list shows a part of the results.
Legend:
Experiment in all cases: glycan array binding signal (z-score within array); higher = stronger binding
Settings in all cases: glycan notation: IUPAC condensed, linker removed
Gal(b1-2)Gal = molecular target: Gal(b1-2)Gal
Method in brief: (§1)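 Arrays were curated from the Consortium for Functional Glycomics database, 3228 in total, and kept only where the protein sequence was available. Binding is expressed as a within-array Z-score. This score was averaged across arrays of the same protein sequence at different concentrations or buffers and across linkers, and negative values can be read as non-binding.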

Gal(b1-3)Gal = molecular target: Gal(b1-3)Gal
Method in brief: as §1

Gal(b1-3)Gal(b1-4)GlcNAc = molecular target: Gal(b1-3)Gal(b1-4)GlcNAc
Method in brief: as §1

Gal(b1-3)GalNAc = molecular target: Gal(b1-3)GalNAc
Method in brief: as §1

[1] = molecular target: Gal(b1-3)GalNAc(a1-3)[Fuc(a1-2)]Gal(b1-4)Glc
Method in brief: as §1

[2] = molecular target: Gal(b1-3)GalNAc(a1-3)[Fuc(a1-2)]Gal(b1-4)GlcNAc
Method in brief: as §1

Gal(b1-3)GalNAc(b1-3)Gal = molecular target: Gal(b1-3)GalNAc(b1-3)Gal
Method in brief: as §1

[3] = molecular target: Gal(b1-3)GalNAc(b1-3)Gal(a1-4)Gal(b1-4)Glc
Method in brief: as §1

[4] = molecular target: Gal(b1-3)GalNAc(b1-4)Gal(b1-4)Glc
Method in brief: as §1

[5] = molecular target: Gal(b1-3)GalNAc(b1-4)[Neu5Ac(a2-3)]Gal(b1-4)Glc
Method in brief: as §1

Gal(b1-3)GlcNAc = molecular target: Gal(b1-3)GlcNAc
Method in brief: as §1

[6] = molecular target: Gal(b1-3)GlcNAc(a1-3)Gal(b1-4)GlcNAc
Method in brief: as §1

[7] = molecular target: Gal(b1-3)GlcNAc(a1-6)Gal(b1-4)GlcNAc
Method in brief: as §1

Gal(b1-3)GlcNAc(b1-2)Man = molecular target: Gal(b1-3)GlcNAc(b1-2)Man
Method in brief: as §1

[8] = molecular target: Gal(b1-3)GlcNAc(b1-2)Man(a1-3)[Gal(b1-3)GlcNAc(b1-2)Man(a1-6)]Man(b1-4)GlcNAc(b1-4)GlcNAc
Method in brief: as §1

[9] = molecular target: Gal(b1-3)GlcNAc(b1-2)Man(a1-3)[Gal(b1-3)GlcNAc(b1-2)Man(a1-6)]Man(b1-4)GlcNAc(b1-4)[Fuc(a1-6)]GlcNAc
Method in brief: as §1

[10] = molecular target: Gal(b1-3)GlcNAc(b1-2)Man(a1-3)[GlcNAc(b1-4)][Gal(b1-3)GlcNAc(b1-2)Man(a1-6)]Man(b1-4)GlcNAc(b1-4)GlcNAc
Method in brief: as §1

[11] = molecular target: Gal(b1-3)GlcNAc(b1-2)[Gal(b1-3)GlcNAc(b1-6)]Man(a1-6)[Gal(b1-3)GlcNAc(b1-2)Man(a1-3)]Man(b1-4)GlcNAc(b1-4)GlcNAc
Method in brief: as §1

[12] = molecular target: Gal(b1-3)GlcNAc(b1-3)Gal(b1-3)GlcNAc
Method in brief: as §1

[13] = molecular target: Gal(b1-3)GlcNAc(b1-3)Gal(b1-4)Glc
Method in brief: as §1

[14] = molecular target: Gal(b1-3)GlcNAc(b1-3)Gal(b1-4)GlcNAc
Method in brief: as §1

[15] = molecular target: Gal(b1-3)GlcNAc(b1-3)Gal(b1-4)GlcNAc(b1-2)Man(a1-3)[Gal(b1-3)GlcNAc(b1-3)Gal(b1-4)GlcNAc(b1-2)Man(a1-6)]Man(b1-4)GlcNAc(b1-4)GlcNAc
Method in brief: as §1

[16] = molecular target: Gal(b1-3)GlcNAc(b1-3)Gal(b1-4)GlcNAc(b1-2)[Gal(b1-3)GlcNAc(b1-3)Gal(b1-4)GlcNAc(b1-6)]Man(a1-6)[Gal(b1-3)GlcNAc(b1-3)Gal(b1-4)GlcNAc(b1-2)Man(a1-3)]Man(b1-4)GlcNAc(b1-4)[Fuc(a1-6)]GlcNAc
Method in brief: as §1

[17] = molecular target: Gal(b1-3)GlcNAc(b1-3)Gal(b1-4)GlcNAc(b1-3)Gal(b1-4)GlcNAc(b1-2)[Gal(b1-3)GlcNAc(b1-3)Gal(b1-4)GlcNAc(b1-3)Gal(b1-4)GlcNAc(b1-6)]Man(a1-6)[Gal(b1-3)GlcNAc(b1-3)Gal(b1-4)GlcNAc(b1-3)Gal(b1-4)GlcNAc(b1-2)Man(a1-3)]Man(b1-4)GlcNAc(b1-4)[Fuc(a1-6)]GlcNAc
Method in brief: as §1

[18] = molecular target: Gal(b1-3)GlcNAc(b1-3)Gal(b1-4)GlcNAc(b1-6)[Gal(b1-3)GlcNAc(b1-3)]Gal(b1-4)Glc
Method in brief: as §1

[19] = molecular target: Gal(b1-3)GlcNAc(b1-3)Gal(b1-4)[Fuc(a1-3)]GlcNAc
Method in brief: as §1

[20] = molecular target: Gal(b1-3)GlcNAc(b1-3)Gal(b1-4)[Fuc(a1-3)]GlcNAc(b1-6)[Gal(b1-3)GlcNAc(b1-3)]Gal(b1-4)Glc
Method in brief: as §1

[21] = molecular target: Gal(b1-3)GlcNAc(b1-3)GalNAc
Method in brief: as §1

[22] = molecular target: Gal(b1-3)GlcNAc(b1-6)Gal(b1-4)GlcNAc
Method in brief: as §1

[23] = molecular target: Gal(b1-3)GlcNAc(b1-6)GalNAc
Method in brief: as §1

[24] = molecular target: Gal(b1-3)GlcNAc(b1-6)[Gal(b1-3)]GalNAc
Method in brief: as §1

Gal(b1-3)GlcNAc6S = molecular target: Gal(b1-3)GlcNAc6S
Method in brief: as §1

[25] = molecular target: Gal(b1-3)[Fuc(a1-4)]GlcNAc
Method in brief: as §1

[26] = molecular target: Gal(b1-3)[Fuc(a1-4)]GlcNAc(b1-2)Man
Method in brief: as §1

[27] = molecular target: Gal(b1-3)[Fuc(a1-4)]GlcNAc(b1-2)Man(a1-3)[Gal(b1-3)[Fuc(a1-4)]GlcNAc(b1-2)Man(a1-6)]Man(b1-4)GlcNAc(b1-4)[Fuc(a1-6)]GlcNAc
Method in brief: as §1

[28] = molecular target: Gal(b1-3)[Fuc(a1-4)]GlcNAc(b1-3)Gal(b1-3)[Fuc(a1-4)]GlcNAc
Method in brief: as §1

[29] = molecular target: Gal(b1-3)[Fuc(a1-4)]GlcNAc(b1-3)Gal(b1-4)[Fuc(a1-3)]GlcNAc
Method in brief: as §1

B1: LecRKVI.2 (protein)
chain: RTTTNFAFRGFNGNQSKIRIEGAAMIKPDGLLRLTDRKSNVTGTAFYHKPVRLLNRNSTNVTIRSFSTSFVFVIIPSSSSNKGFGFTFTLSPTPYRLNAGSAQYLGVFNKENNGDPRNHVFAVEFDTVQGSRDDNTDRIGNDIGLNYNSRTSDLQEPVVYYNNDDHNKKEDFQLESGNPIQALLEYDGATQMLNVTVYPARLGFKPTKPLISQHVPKLLEIVQEEMYVGFTASTGKGQSSAHYVMGWSFSSGGERPIADVLILSELPPPPPNKAKKEGLNS
glycan array binding signal (z-score) (Gal(b1-2)Gal): -0.34 | glycan array binding signal (z-score) (Gal(b1-3)Gal): 0.45 | glycan array binding signal (z-score) (Gal(b1-3)Gal(b1-4)GlcNAc): -0.182 | glycan array binding signal (z-score) (Gal(b1-3)GalNAc): -0.373 | glycan array binding signal (z-score) [1]: -0.383 | glycan array binding signal (z-score) [2]: -0.338 | glycan array binding signal (z-score) (Gal(b1-3)GalNAc(b1-3)Gal): -0.245 | glycan array binding signal (z-score) [3]: 0.019 | glycan array binding signal (z-score) [4]: -0.346 | glycan array binding signal (z-score) [5]: -0.357 | glycan array binding signal (z-score) (Gal(b1-3)GlcNAc): -0.297 | glycan array binding signal (z-score) [6]: -0.234 | glycan array binding signal (z-score) [7]: -0.312 | glycan array binding signal (z-score) (Gal(b1-3)GlcNAc(b1-2)Man): -0.343 | glycan array binding signal (z-score) [8]: 2.22 | glycan array binding signal (z-score) [9]: -0.373 | glycan array binding signal (z-score) [10]: 0.217 | glycan array binding signal (z-score) [11]: 0.629 | glycan array binding signal (z-score) [12]: -0.207 | glycan array binding signal (z-score) [13]: -0.387 | glycan array binding signal (z-score) [14]: -0.404 | glycan array binding signal (z-score) [15]: 0.241 | glycan array binding signal (z-score) [16]: 0.833 | glycan array binding signal (z-score) [17]: 0.66 | glycan array binding signal (z-score) [18]: -0.26 | glycan array binding signal (z-score) [19]: -0.351 | glycan array binding signal (z-score) [20]: -0.36 | glycan array binding signal (z-score) [21]: 0.521 | glycan array binding signal (z-score) [22]: -0.399 | glycan array binding signal (z-score) [23]: -0.311 | glycan array binding signal (z-score) [24]: 0.611 | glycan array binding signal (z-score) (Gal(b1-3)GlcNAc6S): 0.039 | glycan array binding signal (z-score) [25]: -0.399 | glycan array binding signal (z-score) [26]: -0.297 | glycan array binding signal (z-score) [27]: 0.278 | glycan array binding signal (z-score) [28]: -0.455 | glycan array binding signal (z-score) [29]: -0.304
